From the supplement of paper PMC3334620
In all, about 33,000 sequences were measured (“E-score (-0.5 to 0.5)”: median about -0.012, highest 2% from about 0.29 on). This is one part of the list.

The sequences below were run against T1, Ybr033w (UniProt P38073) (assay: PBM E-score (8-mer binding enrichment) (E-score (-0.5 to 0.5)); higher = stronger / more preferred TF binding; most listed sequences are background and not binding sites). Conditions: protein concentration: 200 nM; construct: GST-full length.
T1 sequence: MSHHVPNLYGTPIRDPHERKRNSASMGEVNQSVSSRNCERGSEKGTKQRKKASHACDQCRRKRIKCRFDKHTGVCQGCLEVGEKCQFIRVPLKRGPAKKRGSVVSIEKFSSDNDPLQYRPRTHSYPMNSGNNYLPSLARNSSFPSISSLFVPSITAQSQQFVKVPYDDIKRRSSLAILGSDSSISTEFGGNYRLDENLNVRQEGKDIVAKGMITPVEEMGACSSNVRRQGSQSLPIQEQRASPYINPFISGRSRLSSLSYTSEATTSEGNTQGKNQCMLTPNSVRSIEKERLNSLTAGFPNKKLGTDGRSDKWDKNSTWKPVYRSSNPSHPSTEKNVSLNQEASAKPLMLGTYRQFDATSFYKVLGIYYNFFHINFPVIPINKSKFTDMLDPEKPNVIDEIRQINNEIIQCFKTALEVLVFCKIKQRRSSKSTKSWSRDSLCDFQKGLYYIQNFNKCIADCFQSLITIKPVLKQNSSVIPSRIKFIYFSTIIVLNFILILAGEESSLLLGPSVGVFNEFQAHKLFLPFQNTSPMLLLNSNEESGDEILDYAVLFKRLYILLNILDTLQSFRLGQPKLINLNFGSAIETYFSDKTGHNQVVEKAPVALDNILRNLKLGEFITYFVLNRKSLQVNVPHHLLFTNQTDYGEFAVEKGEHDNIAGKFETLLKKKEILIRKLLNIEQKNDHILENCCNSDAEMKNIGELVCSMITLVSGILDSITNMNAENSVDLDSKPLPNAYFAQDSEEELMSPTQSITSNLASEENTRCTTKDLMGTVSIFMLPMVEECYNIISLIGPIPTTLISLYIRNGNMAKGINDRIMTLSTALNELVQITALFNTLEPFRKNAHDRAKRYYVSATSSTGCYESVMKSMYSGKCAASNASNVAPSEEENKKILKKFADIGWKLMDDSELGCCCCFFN
Procedure, shortened: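 Detection of bound protein used fluorescent anti-GST, with scans normalised by masliner. The proteins were GST-tagged yeast transcription factors applied at about 100-200 nM to universal all-10-mer Agilent arrays made double-stranded by primer extension. Each ungapped eight-base word, pooled with its reverse complement, was scored with an E-score from the Universal PBM Analysis Suite.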

Sequence	PBM E-score
CAAAAAGG	-0.0467
AGTTGTTC	0.337
ATATCCGC	0.119
GTACGGAA	0.216
CGTTATAA	0.05
TCAGGTAA	0.0046
AAATGGAC	0.0958
AGCAGTTC	0.144
AGGCCATC	-0.193
ATCAGCCA	-0.111
TACGGGGA	-0.183
TCTTATAA	0.0725
TCGGATAA	0.335
AAAAGGGT	0.0255
AGTCCCCA	-0.321
ATCGCCGA	-0.122
CGGTCAGA	-0.0886
ATTAAAGC	0.141
TCACTCCA	-0.02
CAGCGCTC	-0.192
CGCGTAAC	-0.0497
CTTCGCGA	-0.0738
CTCGGATC	0.0946
AACAGACC	0.0535
CAACTCTG	-0.0426

Sequence	PBM E-score
CGTTATCC	-0.118
CCTGACCG	-0.284
CATTCGCC	-0.211
AAAGATTT	0.0994
CCGGTGCC	-0.246
ATGCCATC	0.0751
AACCCGGA	0.0617
AGGCTGTG	-0.0875
ACCTAGCC	-0.178
GTTCAGTA	0.0555
ACGCGGTA	-0.142
GCATATAC	-0.0177
TACACCTA	0.153
CATAGGCG	-0.167
CCTTCCAA	-0.00474
GTATAGCA	0.16
GGGCAAAA	0.0829
ACGGGCAT	-0.108
GCTAGAGC	-0.189
GCAGGGAC	-0.129
GAACGCTA	-0.114
AAATCATT	0.191
CTACGGTC	-0.233
CACAGTAC	0.045
CTCCATTC	-0.0984

Sequence	PBM E-score
AGAATCCC	0.0981
CTCGGGGC	-0.316
CCCTTTTC	-0.115
ATTGCTCC	0.0834
CAGTCCGG	-0.187
CACAACAC	-0.027
ATAAGATA	0.237
CAGTGTGC	-0.271
ACACTCCG	-0.0654
CAGAGTGA	-0.0197
AGGATGGC	-0.12
CTCATTGA	-0.106
AAGACCAC	-0.281
AACTCGAT	0.171
GTAGCCAA	-0.0693
CGCTGGCC	-0.378
CCAGAGAG	-0.205
AGCAGCTG	-0.0676
CGAGAGTA	0.171
AGTATAAG	0.173
CGACAGTC	-0.282
GTAGGCGA	-0.0699
AAACCGTT	-0.0546
AGGCTATC	-0.0433
GTACTCAA	0.1

Sequence	PBM E-score
ACGTGGGA	-0.176
AATTCGAT	0.234
AGAGGTTA	0.018
AATCACCG	-0.0481
TGCCGAAA	-0.0214
CCGCTATA	-0.0321
AATAGGAA	0.29
CGATGCCC	-0.28
AATTGGAA	0.136
CGGTGCGA	-0.213
ATTGGAGA	0.141
CCAGACGG	-0.177
ACAACTCA	0.158
AACTACTG	0.126
CACGAGTA	0.0368
GGGGACAA	-0.102
TCACATGA	-0.094
GAATACGA	0.192
AGTTGCGC	0.00203
ATAGACAA	0.118
ATGGATAG	-0.0837
AACAGGGT	-0.147
CCCCTGCC	-0.247
GATGAGGA	-0.183
TATAGACA	0.186

Sequence	PBM E-score
GTATGAAA	0.0652
ATTCGAGC	0.015
AGGCGTTC	-0.362
GGATTGAA	0.161
GGGGGTAA	-0.407
GGGGGGGA	-0.479
AAGTAACG	0.0587
ACAGGGTA	-0.0372
AAGTTAGT	0.21
CCTGCGGA	-0.0513
CAACATCA	0.278
TAGGTACA	-0.084
CGCTGCCA	-0.246
AGCAGACG	-0.0872
ACGTTTAT	0.113
CCACGATC	0.106
GTCTTTGA	-0.0431
CGATAACG	-0.0436
CATGCATC	-0.00805
ACCAAAAT	0.111
CTCAAGTA	0.0799
ACCCCCCC	-0.41
ACCCCGGC	-0.202
CAGATACA	0.135
GATAACGC	-0.0882

Sequence	PBM E-score
AGGCCAGC	-0.296
TCTGACCA	0.029
CCTCGCAC	-0.00673
AGCGCTCG	-0.215
ACTCTGGG	-0.086
AGCCGGCG	-0.199
GTAGAGCA	-0.128
TCCGTAAA	0.0786
ACACGACA	0.191
ACAACGAT	0.122
CCCTCGGA	0.105
CAGGCCGA	-0.0826
CGACCCAG	-0.401
CTTCTCAC	-0.0123
TGATACCA	0.092
AGACAAGC	-0.0962
CTTCGGAC	0.127
CGTAGCAC	-0.0253
AAACGCTC	-0.15
AAATCGAC	0.142
TCGATGCA	-0.0719
GAGAGATC	-0.00339
AATTGGGT	0.282
CTGACGTC	-0.0676
ATCGCCCA	-0.267

Sequence	PBM E-score
ACATGGCT	-0.186
ATGGATTA	0.115
AGTTGGTG	-0.0643
CCTCATAA	0.0859
ACAACCAC	0.0628
CCACCGGA	0.172
GCGGCGAC	-0.257
ATCATTGC	0.0242
ACAAGGCT	-0.274
CTAACATC	0.0315
TACTCCGA	0.134
TACGTCGA	0.00164
CCACCGCG	0.0359
AATCGTCC	0.00041
CCTGTCCA	-0.232
CCAGTGAG	-0.171
AAACGGAC	-0.102
GAGCCTGC	-0.154
CTTAAGAA	0.0628
CCAGCCTC	-0.348
ATGAGCCC	-0.136
GCGTTGGA	-0.13
